Read counts are not given, so values of variants with three or more changes are uncertain.
B1: OR4K15 (parent)
chain: GUUAACGGUCAUAGGCCAUGGAAACUAGGAGCACCAUUUCGCUGCCAGUGAAGAAAUGAACAAAGAAAAUCUGGGCCAGGCAGGCAUCAAAAGAAAUAGUCUUGCGCUCAACCAGAAAGUCUGUAAUCAUUUUAAGGGUA

Variants of: B1
Experiment: self-cleavage, relative activity (ratio to wild type); higher = more cleavage; in vitro, sequencing; the parent is a self-cleaving ribozyme

Row | Variant | self-cleavage
1 | U19C U87C A89G A125G | 0.23
2 | U9A A59G U132A A140G | 1.37
3 | A62G U70A A96G | 0.54
4 | A22G A36G U103G | 0.05
5 | A51G A63G A89U A135G | 1.32
6 | U12C A30G A62G A69G | 1.07
7 | A24G A47U A129C | 0.6
8 | U43C A59G C109U A118G U130C U131C | 0.17
9 | C77U A78G A92G U120C | 0.2
10 | A94G A117G U122C U124A | 0.76
11 | U38C U108C A116G U132C | 0
12 | U57C A60G A82G | 0.15
13 | A67G A95G U102C U131C | 2.84
14 | U39A A52G A62C | 0.59
15 | A18U A23G U87C | 0.93
16 | U43C U57C A64G A89G | 1.22
17 | U70A A86G C112U A126G | 0.01
18 | A18G A24G A56G A59U A111G C113U A135G A140G | 0.01
19 | U2A A89G U130C | 1.21
20 | A5G A68U A95G A110U | 1.45
21 | U57C A110G A117G A126G | 0

Row | Variant | self-cleavage
22 | A24C G79A G83U | 0.24
23 | U9C A55G A68G A89G | 1.06
24 | A82U A92G A116G | 0.06
25 | U39A A68G A92G U102C | 1.78
26 | U2C A67G U120C | 1.07
27 | U72C A89G U124C | 0.08
28 | A11G U122C A135G | 1.09
29 | U19C A54G A64G U102C | 1.48
30 | A67G U102C A111G | 0.01
31 | A22U A126G U130C | 0.65
32 | A66G A68G A69U | 1.54
33 | A30G U131C U132C | 1.44
34 | A89C A96G C101U A118G U130C | 0.11
35 | A62G G79A A92G A95G | 0.08
36 | U3C A51G C81A U87A U132G | 0.09
37 | A90G U108C U124A U127A U132C | 0
38 | U87C A90G A111G | 0.01
39 | A33G A66G U103C | 0.51
40 | A23G U49C U87C U122C | 0.18
41 | A24U A60G A78G U102C U131C | 0.22
42 | G7U A13U U103A | 0.58

Row | Variant | self-cleavage
43 | A23U U57A A90G | 1.3
44 | U39C G48A A114U U132C A134G | 0.01
45 | U57C A59G U87C A90G U132A | 0.32
46 | C17A A69G A78G | 0.5
47 | U19A A24G G31U U49C A52G U103C A114G | 0.43
48 | C34G A59G U120C | 0.77
49 | A18G U38A A117G A129G | 1.22
50 | A30G A67G U102C | 0.51
51 | A68G A92G A116G | 0.87
52 | G7A A11U A36G U70C A94U A95G A111G A118G | 0.01
53 | A22U C128A U131C | 0.71
54 | C32U U43C A114G | 0.9
55 | G14A A18U U87C A96G A134G | 1.01
56 | A55G A110U A114G A118G | 0.37
57 | U57C A69G A91G | 0.45
58 | U37C A54G A69G A114G U127C | 0.2
59 | A11G U43G A51G A55G A68G A96U | 1.54
60 | U37C U38C A82G A98G | 0.23
61 | U19C C32U A86G U130C U139C | 1.29
62 | A11G A60G A95G | 1.15
63 | C85U A92G A118G | 1.18

Row | Variant | self-cleavage
64 | A22G U37C A51G A59G A140G | 0.97
65 | U87A A116U U122C | 0.13
66 | A18G G21A U43C A116G | 1.58
67 | A23G A54G A78G U130C | 0.12
68 | U38C A51G A62G | 1.2
69 | A11G A54U A86G | 1.05
70 | U19C U37C A126G U130C | 0.22
71 | A118G U122C U131A | 0.94
72 | A5G A95G A111G | 0.16
73 | A68G U87A U102C | 1.61
74 | U2C U103C U131C | 1.17
75 | A24G U102G A134G | 0.22
76 | A5G U37C A54G | 0.89
77 | A54G A56G A59U | 0.9
78 | A24U G48U A67G A86G A90U A111G | 0.02
79 | U39C A59G A68G G80A A94G | 0.25
80 | A5G C17A A23G A96G | 1.44
81 | A63C U87C C105U | 0.3
82 | A5C A47U A60G A129G | 0.61
83 | U43C C45U A51G A54G | 1.97

Source: the RNAGym collection of RNA variant scans (doi:10.7554/elife.90254)
